Measured values published in PubChem BioAssay AID2675 (National Center for Advancing Translational Sciences (NCATS), 2010).
In all, about 280,000 compounds went through this assay and about 100 (0.036%) were called active. The shares of active, inactive and inconclusive entries below differ from those in the screen. Calls follow the shape of the dose curve; as a rule, active = well fitted inhibition curve with a large enough effect in the signal ratio, with a control signal flat (not every such curve was filed as active); inconclusive = small, poorly fitted or top-dose-only effect, or effect the other way, or a change in a side signal; inactive = no such curve, though single readings can be large or run the other way; the % refers to the signal ratio. Potencies beside an inconclusive call are fits to weak or partial responses and may not hold up. “Side channel” marks fits to a control or component signal instead of the main read-out.

Molecular target: Muscleblind-like protein 1 (Homo sapiens) (UniProt Q9NR56)
Assay: qHTS Assay for Inhibitors of MBNL1-poly(CUG) RNA binding
Details: TR-FRET MBNL1-His/biotin-(CUG)12 binding, 665/545 ratio; activity change, negative = inhibition: at 57.5 µM (top of the series)
Method in brief: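 Compound titration spanned 92 nM–58 uM against the MBNL1-His/biotin-(CUG)12 complex. After 60 min at room temperature with 5 nM streptavidin-XL665 and 0.055 ng/ul terbium anti-His, ratiometric 665/545 nm emission (Ex 340 nm) normalized to controls.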
% is scaled to controls: 0 for no effect and ±100 for the full control effect; potency is read from the fitted curve at half-maximal effect; tags tell the direction and shape of the fitted curve or compound fluorescence and quenching.

Chain of UniProt Q9NR56 (Q9NR56 whole entry, looked up): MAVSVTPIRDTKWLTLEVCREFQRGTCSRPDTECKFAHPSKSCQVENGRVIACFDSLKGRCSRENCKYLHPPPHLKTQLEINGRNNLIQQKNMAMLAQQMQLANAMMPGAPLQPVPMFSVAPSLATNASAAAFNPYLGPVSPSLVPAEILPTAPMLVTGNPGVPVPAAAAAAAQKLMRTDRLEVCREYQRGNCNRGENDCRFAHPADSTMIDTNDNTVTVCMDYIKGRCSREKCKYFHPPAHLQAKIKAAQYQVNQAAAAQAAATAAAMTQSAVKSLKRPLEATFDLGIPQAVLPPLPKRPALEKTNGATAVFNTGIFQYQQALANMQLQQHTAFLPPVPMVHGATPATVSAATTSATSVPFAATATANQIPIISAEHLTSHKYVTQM

Row | SMILES | Potency | activity change, negative = inhibition
1 | O=C(c1ccccc1)c1cc2ccccc2o1 | inconclusive: 20 µM [quencher, side channel, partial curve] | –
2 | CCOC(=O)c1sc2ccccc2c1NC(=O)c1coc2ccccc2c1=O | – | inconclusive: -1.72% [phenotype inactive]
3 | O=C(O)CCCn1cc(NC(=O)COc2cc(F)ccc2[N+](=O)[O-])cn1 | inconclusive: 0.199 µM [quencher, side channel, full curve] | –
4 | CCOC(=O)c1c(NC(=O)C(=O)N/N=C/c2ccccc2O)sc2c1CCCCC2 | inconclusive: 1 µM [fluorescent, side channel, partial curve] | –
5 | Cc1nn(Cc2ccc(Cl)c(Cl)c2)c(C)c1NC(=O)c1cc(-c2ccco2)on1 | inactive | –
6 | O=C(C1CCN(S(=O)(=O)c2cccc3nsnc23)CC1)N1CC=C(c2ccccc2)CC1 | inconclusive: 14.1 µM [quencher, partial curve] | –
7 | Cc1c(NC(=S)NC(=O)C(C)(C)C)cccc1[N+](=O)[O-] | inactive | –
8 | O=C(N/N=C\c1ccccc1)c1sccc1-n1cccc1 | inactive | –
9 | CCN(CC)S(=O)(=O)c1cccc(-c2n[nH]c(=S)n2CC(C)C)c1 | inactive | –
10 | CC(C)CC(NC(=O)C1CCCCC1)C(=O)N1CCN(c2ccccn2)CC1 (centres undefined) | inactive | –
11 | CCN(CC)Cc1c(O)ccc2c1O/C(=C\C=C\c1ccccc1)C2=O | inconclusive: 8.91 µM [quencher, side channel, partial curve] | –
12 | Cc1cc(C)c2c3c(sc2n1)C(c1cccc(F)c1)C(C#N)=C(N)O3 (centres undefined) | inconclusive: 25.1 µM [quencher, side channel, single point] | –
13 | COc1ccccc1OCc1ccc(C(=O)Nc2cc(OC)c(OC)c(OC)c2)o1 | inactive | –
14 | C/C(=N\Nc1ccc([N+](=O)[O-])cc1)c1ccc(O)cc1 | inconclusive: 28.2 µM [quencher, side channel, single point] | –
15 | COC(=O)c1cccc(NC(=S)NCc2ccc(Cl)cc2)c1 | inactive | –
16 | Cc1ccc2nc(SCC(=O)Nc3ccc4c(c3)CCC4)[nH]c2c1 | inactive | –
17 | Cc1ccnc(NC(=O)c2sc3cc(Cl)ccc3c2Cl)c1 | inconclusive: 0.794 µM [fluorescent, side channel, partial curve] | –
18 | Cn1c(=O)n(CC(=O)NC2CCCCC2)c(=O)c2ccccc21 | inactive | –
19 | COc1cccc(CNc2ccc(N3CCC(C)CC3)cc2)c1OC | inactive | –
20 | C/C(=N\Nc1nnc(C)c(=O)[nH]1)C(=O)O | inactive | –
21 | COc1ccc(/C=C/C(=O)NCCc2nc3ccccc3[nH]2)cc1 | inconclusive: 35.5 µM [quencher, side channel, single point] | –
22 | CC(C)NC(=O)c1ccc2c(c1)S(=O)(=O)c1ccccc1C2=O | inconclusive: 12.6 µM [quencher, partial curve] | –

Row | SMILES | Potency | activity change, negative = inhibition
23 | O=C1CC(=O)Nc2cc(S(=O)(=O)N3CCN(c4ccc([N+](=O)[O-])cc4)CC3)ccc2N1 | inconclusive: 11.2 µM [quencher, side channel, partial curve] | –
24 | O=c1oc2ccccc2c(O)c1C=NCc1ccccn1 | inconclusive: 7.94 µM [fluorescent, side channel, partial curve] | –
25 | CCOC(=O)C1CCN(C(=O)c2cn(CCOC)c(=O)c3c2c2ccccc2n3C)CC1 | inactive | –
26 | CCN(CC)S(=O)(=O)c1ccc(OC)c(NC(=O)c2ccc([N+](=O)[O-])cc2)c1 | inconclusive: 6.31 µM [quencher, side channel, partial curve] | –
27 | COc1ccc2c(c1)C(=O)c1ccccc1CO2 | inconclusive: 25.1 µM [quencher, side channel, single point] | –
28 | Cc1ccccc1N1CCN(C(=O)CCN2C(=O)c3ccccc3C2=O)CC1 | inactive | –
29 | C=CCNC(=S)N/N=C/c1cccc([N+](=O)[O-])c1 | inconclusive: 15.8 µM [quencher, side channel, partial curve] | –
30 | CCOc1ccccc1-c1nc(-c2ccc(NC(=O)c3ccc(Br)o3)cc2)no1 | inactive | –
31 | O=c1c(Cc2ccc(F)cc2)c(O)ccn1Cc1ccc(Cl)cc1Cl | inconclusive: 7.08 µM [quencher, side channel, single point] | –
32 | Cc1cccc(N2C(=O)c3ccc(Br)cc3C2=O)n1 | inconclusive: 7.08 µM [quencher, side channel, partial curve] | –
33 | O=C(COC(=O)[C@@H]1CCCN1C(=O)c1cccs1)Nc1ccc(F)cc1[N+](=O)[O-] | inconclusive: 15.8 µM [quencher, partial curve] | –
34 | O=C(COc1cccc2ccccc12)Nc1ccc(Cl)cc1C(=O)O | inactive | –
35 | CCN(C(=S)Nc1cc(S(=O)(=O)N2CCOCC2)ccc1Cl)c1cccc2ccccc12 | inconclusive: 3.16 µM [quencher, side channel, full curve] | –
36 | COc1ccccc1S(=O)(=O)Cc1ccc(C(=O)N2CCN(c3ccccc3)CC2)o1 | inactive | –
37 | COc1ccc(N2CCN(C(=O)c3cccnc3)CC2)c([N+](=O)[O-])c1 | inconclusive: 22.4 µM [quencher, side channel, partial curve] | –
38 | O=C(CSc1nnc(COc2ccccc2)o1)c1ccccc1 | inactive | –
39 | COc1ccc(C(=O)O)cc1NS(=O)(=O)c1cccc2nsnc12 | inconclusive: 17.8 µM [quencher, side channel, partial curve] | –
40 | O=C(C1CCN(S(=O)(=O)c2cccc3nsnc23)CC1)N1CCCCC1 | inconclusive: 3.16 µM [quencher, side channel, full curve] | –
41 | CC(C)C(C)(C#N)NC(=O)CSc1ncnc2sc(-c3ccccc3)cc12 (centres undefined) | inconclusive: 35.5 µM [quencher, side channel, single point] | –
42 | N#Cc1cc2c(nc1SCC(=O)Nc1nccs1)CCCCC2 | inconclusive: 22.4 µM [fluorescent, side channel, single point] | –
43 | COc1cc2c(cc1OC)C(C)N(C(=O)c1ccc(C)o1)CC2 (centres undefined) | inactive | –
44 | O=C(Nc1ccc(N2CCN(C(=O)c3ccccc3F)CC2)cc1)c1cncc(Br)c1 | inactive | –
